The values below come from PMC4705382.

Sequences of proteins named here, by UniProt entry; tags and fusion partners are left off.
UniProt Q62760: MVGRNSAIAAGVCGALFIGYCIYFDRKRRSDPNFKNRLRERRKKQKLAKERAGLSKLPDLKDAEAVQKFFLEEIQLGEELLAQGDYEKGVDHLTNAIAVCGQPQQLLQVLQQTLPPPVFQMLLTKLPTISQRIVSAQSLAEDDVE

Results are given in words; binding and its absence hold for the method and conditions named. In cells and extracts the contact can be indirect. Some binding calls cover weakened binding; strength is not graded here. For part of these data: Sequences can lack the tags named with a protein.

Experiment in all cases: co-IP; native co-IP from brain homogenate of transgenic rats expressing human DISC1; lysis buffer with 1.5% Triton X-100, 1% BSA, antibodies overnight, protein A beads
In experiment [1] the target is TOM20 (translocase of the outer membrane of 20 kDa), rat brain (rat (endogenous in brain)) (UniProt Q62760).
Experiment [2] addresses T1, Mitofusin1 (rat brain) (rat (endogenous in brain)) (UniProt Q8R4Z9).
T1 sequence: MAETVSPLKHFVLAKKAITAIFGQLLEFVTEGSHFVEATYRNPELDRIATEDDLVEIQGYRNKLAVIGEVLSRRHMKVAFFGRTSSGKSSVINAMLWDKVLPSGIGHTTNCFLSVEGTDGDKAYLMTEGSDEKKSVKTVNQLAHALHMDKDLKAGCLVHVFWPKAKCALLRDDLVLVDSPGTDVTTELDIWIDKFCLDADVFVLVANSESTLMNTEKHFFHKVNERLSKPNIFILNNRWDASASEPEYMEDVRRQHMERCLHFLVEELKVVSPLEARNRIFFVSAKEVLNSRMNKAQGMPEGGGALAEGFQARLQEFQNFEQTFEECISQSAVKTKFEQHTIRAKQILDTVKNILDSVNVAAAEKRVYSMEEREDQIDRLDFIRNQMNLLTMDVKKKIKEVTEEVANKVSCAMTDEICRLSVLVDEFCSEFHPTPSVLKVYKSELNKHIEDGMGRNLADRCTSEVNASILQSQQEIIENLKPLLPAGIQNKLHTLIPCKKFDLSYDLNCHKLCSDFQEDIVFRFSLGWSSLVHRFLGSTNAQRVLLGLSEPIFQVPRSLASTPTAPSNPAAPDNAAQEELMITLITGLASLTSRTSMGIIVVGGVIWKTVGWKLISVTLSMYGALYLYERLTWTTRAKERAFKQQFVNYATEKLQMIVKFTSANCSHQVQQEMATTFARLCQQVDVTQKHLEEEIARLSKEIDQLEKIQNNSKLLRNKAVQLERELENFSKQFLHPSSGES

The target of experiment [3] is T2, TRAK2 (rat brain) (rat (endogenous in brain)) (UniProt Q8R2H7).
T2 sequence: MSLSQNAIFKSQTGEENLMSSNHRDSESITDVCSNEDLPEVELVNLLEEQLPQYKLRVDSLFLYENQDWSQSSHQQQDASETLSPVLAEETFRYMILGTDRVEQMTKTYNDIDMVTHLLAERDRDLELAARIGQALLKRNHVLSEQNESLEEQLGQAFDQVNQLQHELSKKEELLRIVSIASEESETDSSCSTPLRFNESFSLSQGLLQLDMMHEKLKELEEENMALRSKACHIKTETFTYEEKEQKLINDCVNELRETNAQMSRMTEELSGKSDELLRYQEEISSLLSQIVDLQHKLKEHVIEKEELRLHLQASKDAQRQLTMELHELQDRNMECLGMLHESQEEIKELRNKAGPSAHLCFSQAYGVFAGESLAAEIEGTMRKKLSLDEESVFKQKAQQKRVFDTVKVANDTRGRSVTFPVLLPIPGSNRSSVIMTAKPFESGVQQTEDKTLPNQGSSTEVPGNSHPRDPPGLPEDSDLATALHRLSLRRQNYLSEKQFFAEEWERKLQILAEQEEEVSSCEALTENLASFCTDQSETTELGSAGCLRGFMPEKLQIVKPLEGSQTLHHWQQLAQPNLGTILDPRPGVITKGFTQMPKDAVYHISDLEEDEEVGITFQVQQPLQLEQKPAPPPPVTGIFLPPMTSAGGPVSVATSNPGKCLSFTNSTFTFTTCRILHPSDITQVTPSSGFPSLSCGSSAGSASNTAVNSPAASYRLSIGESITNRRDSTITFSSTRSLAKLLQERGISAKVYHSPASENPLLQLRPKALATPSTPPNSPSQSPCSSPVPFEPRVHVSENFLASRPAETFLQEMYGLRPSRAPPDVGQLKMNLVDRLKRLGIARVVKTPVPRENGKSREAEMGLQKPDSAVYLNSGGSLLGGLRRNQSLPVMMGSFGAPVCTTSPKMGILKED

B1: full-length, non-mutant, human DISC1 (transgenic rat brain) (protein, UniProt Q9NRI5 1-854)
chain: MPGGGPQGAPAAAGGGGVSHRAGSRDCLPPAACFRRRRLARRPGYMRSSTGPGIGFLSPAVGTLFRFPGGVSGEESHHSESRARQCGLDSRGLLVRSPVSKSAAAPTVTSVRGTSAHFGIQLRGGTRLPDRLSWPCGPGSAGWQQEFAAMDSSETLDASWEAACSDGARRVRAAGSLPSAELSSNSCSPGCGPEVPPTPPGSHSAFTSSFSFIRLSLGSAGERGEAEGCPPSREAESHCQSPQEMGAKAASLDGPHEDPRCLSRPFSLLATRVSADLAQAARNSSRPERDMHSLPDMDPGSSSSLDPSLAGCGGDGSSGSGDAHSWDTLLRKWEPVLRDCLLRNRRQMEVISLRLKLQKLQEDAVENDDYDKAETLQQRLEDLEQEKISLHFQLPSRQPALSSFLGHLAAQVQAALRRGATQQASGDDTHTPLRMEPRLLEPTAQDSLHVSITRRDWLLQEKQQLQKEIEALQARMFVLEAKDQQLRREIEEQEQQLQWQGCDLTPLVGQLSLGQLQEVSKALQDTLASAGQIPFHAEPPETIRSLQERIKSLNLSLKEITTKVCMSEKFCSTLRKKVNDIETQLPALLEAKMHAISGNHFWTAKDLTEEIRSLTSEREGLEGLLSKLLVLSSRNVKKLGSVKEDYNRLRREVEHQETAYETSVKENTMKYMETLKNKLCSCKCPLLGKVWEADLEACRLLIQSLQLQEARGSLSVEDERQMDDLEGAAPPIPPRLHSEDKRKTPLKVLEEWKTHLIPSLHCAGGEQKEESYILSAELGEKCEDIGKKLLYLEDQLHTAIHSHDEDLIQSLRRELQMVKETLQAMILQLQPAKEAGEREAAASCMTAGVHEAQA
As to B1, the binding entry in experiment [1] is “no binding”; in experiment [2], “binds”; in experiment [3], “binds”.
